{"source": "PubChem BioAssay AID686979", "about": "(National Center for Advancing Translational Sciences (NCATS), 2013)", "note": "In all, about 420,000 compounds went through this assay and about 50,000 (12%) were called active. The inconclusive results got no clear call from the source; some entries with a clear call stand among them for comparison. The call rests on the fitted dose curve; in most records, active means well fitted inhibition curve with a large enough effect; inconclusive means small, poorly fitted or top-dose-only effect; inactive means flat fitted curve, though single readings scatter. Potencies of inconclusive entries are left out as doubtful fits. On the % scale 0 is the no-effect control and ±100 the full control effect; potency means the concentration at half of the fitted maximal effect; tags describe the fitted curve by direction and shape."}
{"experiment": "qHTS for Inhibitors of human tyrosyl-DNA phosphodiesterase 1 (TDP1): qHTS in cells in presence of CPT; further: nearly all actives have a fitted effect of over 55% in size", "settings": "chicken DT40 Tdp1-/-;hTDP1 cells + 20 nM CPT, ATP luminescence, 48 h; activity change, negative = growth inhibition: at 46.2 µM (top of the series) unless noted", "in_short": "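Chicken DT40 Tdp1-/- cells complemented with human TDP1, 400 cells/well, exposed to compounds plus 20 nM camptothecin for at least 48 h at 37 C; viability read as ATP content by CellTiter-Glo luminescence.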"}
{"molecule": "COc1ccc(CCC(=O)N2CCN(c3ccccc3)CC2)cc1OC", "Potency": "inconclusive [inhibitor, single point]"}
{"molecule": "COc1cccc(CNc2nc3nc(C)cc(C)n3n2)c1", "Potency": "inactive"}
{"molecule": "CSCCC1NC(=O)N(CC(=O)Nc2c(Cl)cc(Cl)cc2Cl)C1=O", "note": "(configuration not stated)", "Potency": "active: 16.4 µM"}
{"molecule": "O=[N+]([O-])c1ccc(S(=O)(=O)Nc2ccc(-c3ccc(N4CCOCC4)nn3)cc2)cc1", "Potency": "inactive"}
{"molecule": "CCN(CC)c1nc(C#N)nc(N2CCOCC2)n1", "Potency": "active: 10 µM"}
{"molecule": "CC(C)c1ccccc1NC(=O)C1CN(S(=O)(=O)c2ccccc2)CCN1S(=O)(=O)c1ccccc1", "note": "(configuration not stated)", "Potency": "inconclusive [inhibitor, partial curve, poor fit]"}
{"molecule": "O=C(CSc1nnc(Cc2cccs2)n1CCc1ccccc1)N1CCCc2ccccc21", "Potency": "inconclusive [inhibitor, single point]"}
{"molecule": "Cc1ccc(S(=O)(=O)Oc2ccccc2/C=N/N=C(N)N)cc1", "Potency": "inconclusive [inhibitor, partial curve]"}
{"molecule": "CCOC(=O)c1cccc(NC(=O)C2CCCN(S(=O)(=O)c3ccc4c(c3)oc(=O)n4C)C2)c1", "note": "(configuration not stated)", "Potency": "inconclusive [inhibitor, partial curve]"}
{"molecule": "COc1ccc(C=C(C(C)=O)C(C)=O)cc1OC", "Potency": "inconclusive [inhibitor, single point]"}
{"molecule": "CCc1ccc(NC(=O)C(C)n2nnc3sc(-c4ccccc4)cc3c2=O)cc1", "note": "(configuration not stated)", "Potency": "inconclusive [inhibitor, partial curve]"}
{"molecule": "CCOc1ccc(Nc2ncnc3c2cnn3Cc2ccccc2)cc1", "Potency": "inconclusive [inhibitor, single point]"}
{"molecule": "Cc1ccc(-n2c(=O)c3c4c(sc3n(Cc3cccc(Cl)c3)c2=O)CCC4)cc1C", "Potency": "inconclusive [inhibitor, full curve, poor fit]"}
{"molecule": "CN(CC(=O)Nc1cccc(F)c1)CC(=O)NC(c1ccccc1)c1ccccc1", "Potency": "active: 23.1 µM"}
{"molecule": "COc1ccccc1NC(=O)CSc1nnnn1C", "Potency": "inactive"}
{"molecule": "COc1ccc(S(=O)(=O)N2CCOCC2)cc1NC(=O)c1ccc(SC)cc1OC", "Potency": "inconclusive [inhibitor, single point]"}
{"molecule": "NS(=O)(=O)c1ccc(CNS(=O)(=O)c2cccc3nonc23)cc1", "Potency": "inactive"}
{"molecule": "O=C(c1ccc(Cl)cc1[N+](=O)[O-])N1CCOCC1", "Potency": "inactive"}
{"molecule": "CC(C)(C)N1C(=O)c2ccccc2NC(=O)C1C(=O)Nc1ccc2c(c1)OCCO2", "note": "(configuration not stated)", "Potency": "inconclusive [inhibitor, single point]"}
{"molecule": "Cc1ccc(/C=C/C(=O)Nn2cnnc2)cc1", "Potency": "inconclusive [inhibitor, single point]"}
{"molecule": "CCOc1cccc(N2C(=O)CC(NCc3ccc(S(N)(=O)=O)cc3)C2=O)c1", "note": "(configuration not stated)", "Potency": "inactive"}
{"molecule": "CCc1ccc(NC(=O)C2=CC(c3ccc(OC)cc3)=NS(=O)(=O)N2C)cc1", "Potency": "inconclusive [inhibitor, single point]"}
{"molecule": "Cc1ccc(S(=O)(=O)Nc2ccc3c(c2)CC(=O)N([C@H](C)CO)C[C@@H](C)[C@H](CN(C)Cc2ccc(-c4ccccc4)cc2)O3)cc1", "Potency": "inconclusive [inhibitor, single point]"}
{"molecule": "COC(=O)c1c(OCc2ccccc2)cc(=O)n2c1CCN(Cc1cccc(C)n1)CC2", "Potency": "inconclusive [inhibitor, single point]"}
{"molecule": "Cc1cccc(OCCCCn2c(CO)nc3ccccc32)c1", "Potency": "inconclusive [inhibitor, single point]"}
{"molecule": "Cc1csc2nc(COC(=O)c3ccccc3NC(=O)COc3ccccc3F)cc(=O)n12", "Potency": "inconclusive [inhibitor, single point]"}
{"molecule": "O=S(=O)(/N=C(/Nc1nc2ccccc2s1)c1ccccc1)c1ccccc1", "Potency": "inactive"}
{"molecule": "Cc1ccc(Cl)cc1NC(=O)Cn1c(=O)n(CCCS(=O)(=O)C2CCCCC2)c(=O)c2ccccc21", "Potency": "inconclusive [inhibitor, single point]"}
{"molecule": "CCC(=O)N1CCCC(C)(C(=O)Nc2ccc(OC)c(F)c2)C1", "note": "(configuration not stated)", "Potency": "inactive"}
{"molecule": "O=C(CCN1C(=O)S/C(=C\\c2ccc(F)cc2)C1=O)Nc1ccc(O)cc1C(=O)O", "Potency": "inactive"}
{"molecule": "Cc1ccc(C)c2[nH]c(=O)c(CCNC(=O)c3ccc4c(c3)OCO4)cc12", "Potency": "inconclusive [inhibitor, single point]"}
{"molecule": "Cc1ccccc1-c1ccc2ncnc(N3CCN(C)CC3)c2c1", "Potency": "inconclusive [inhibitor, single point]"}
{"molecule": "COC(=O)c1c(NC(=O)CN2CCN(Cc3ccc4c(c3)OCO4)CC2)sc(C)c1C", "Potency": "inconclusive [inhibitor, single point]"}
{"molecule": "N#Cc1ccc(CO/N=C/c2ccccc2)cc1", "Potency": "inactive"}
{"molecule": "COc1ccc(OC)c(CNC(=O)C2CCC(=O)N2C(C)C)c1", "note": "(configuration not stated)", "Potency": "inactive"}
{"molecule": "Cc1ccc2nc(N3CCN(Cc4ccc(F)cc4)C3=O)c(C)cc2c1", "Potency": "inconclusive [inhibitor, single point]"}
{"molecule": "Cc1ccc(NC(=O)C(=O)NCCN2CCN(C(=S)Nc3ccccc3)CC2)cc1", "Potency": "inconclusive [inhibitor, single point]"}
{"molecule": "CC1CN(CC(=O)Nc2cccc(C(=O)Nc3cccc(C(F)(F)F)c3)c2)CC(C)O1", "note": "(configuration not stated)", "Potency": "active: 23.1 µM"}
{"molecule": "C=CCn1c(-c2ccccc2)n[nH]c1=S", "Potency": "inconclusive [inhibitor, partial curve]"}
{"molecule": "O=C1Nc2ccccc2-c2nnnn2C1N1CCCC1", "note": "(configuration not stated)", "Potency": "inactive"}
{"molecule": "COc1ccc(C2=Nc3ccccc3N(C(=O)c3ccc(C)cc3)C2C(=O)Nc2c(C)cccc2C)cc1", "note": "(configuration not stated)", "Potency": "inconclusive [inhibitor, single point]"}
{"molecule": "NC1=NC[C@H](Cc2ccccc2)N1CCc1cccc(F)c1", "Potency": "active: 13 µM"}
{"molecule": "COc1ccc(-c2c3c(=O)n(C)c(=O)n(C)c3c3c(-c4cccc(C)c4)nc4ccccc4n23)cc1", "Potency": "inconclusive [inhibitor, single point]"}
{"molecule": "Clc1ccc(C2Nc3cccc4cccc(c34)N2)cc1", "Potency": "inconclusive [inhibitor, partial curve]"}
{"molecule": "CC(=O)Nc1nc2[nH]ccc2c(=O)[nH]1", "Potency": "inactive"}
{"molecule": "COc1ccc(C(C#N)=Cc2ccc(N(C)CCC#N)cc2)cc1", "Potency": "active: 23.1 µM"}
{"molecule": "COc1ccc(-c2csc3nc(-c4cccnc4)nc(N4CCC(C(N)=O)CC4)c23)cc1OC", "Potency": "inconclusive [inhibitor, single point]"}
{"molecule": "COc1ccc(NS(=O)(=O)c2cccc(C(=O)O)c2)cc1S(=O)(=O)N1CCCCC1", "Potency": "inactive"}
{"molecule": "CC1CCc2c(sc3nc(C4CC4)nc(N4CCN(C(=O)c5ccco5)CC4)c23)C1", "note": "(configuration not stated)", "Potency": "inconclusive [inhibitor, single point]"}
{"molecule": "O=c1oc2cc(O)ccc2cc1-c1nc2c(s1)CCc1ccccc1-2", "Potency": "inconclusive [inhibitor, single point]"}
{"molecule": "CCc1cc(CNC(=O)CCc2nnc(Cc3cccc(C)c3)o2)on1", "Potency": "inactive"}
{"molecule": "CC(C)c1ccccc1NC(=O)c1cccnc1", "Potency": "inactive"}
{"molecule": "COc1ccc2cc3cc(C(=O)N4CCN(c5cccc(Cl)c5)CC4)sc3nc2c1", "Potency": "inactive"}
{"molecule": "COc1ccc(NS(=O)(=O)c2ccc3c(c2)CCN3C(=O)CCC(=O)O)cc1Cl", "Potency": "inactive"}
{"molecule": "Cc1occc1C(=O)Nc1cccc(-c2nc(CNC(=O)c3cccc(C#CC(C)(C)O)c3)c(C)o2)c1", "activity change, negative = growth inhibition": "inactive: -3.84% [at 9.04 µM]"}
{"molecule": "O=C(Cn1nnc(-c2ccc(Cl)cc2)n1)NC1CCN(Cc2ccccc2)CC1", "Potency": "inconclusive [inhibitor, partial curve]"}
{"molecule": "Cc1cc(C(=O)Nc2ccc(Br)cc2F)n(-c2ccccc2)n1", "Potency": "inconclusive [inhibitor, single point]"}
{"molecule": "CC(C)(C)n1ncc2c(=O)n(CC(=O)NCc3ccccc3)cnc21", "Potency": "active: 8.2 µM"}
{"molecule": "COc1ccc(C(=O)/C=C/c2cc(C(=O)O)cc3c2OCOC3)c(O)c1", "Potency": "inconclusive [inhibitor, single point]"}
{"molecule": "CCC1OC(C)Cc2[nH][nH]c(=O)c21", "note": "(configuration not stated)", "Potency": "inactive"}
{"molecule": "CC(C)CCNC(=O)CSc1nc2ccccc2nc1Cc1ccccc1", "Potency": "inconclusive [inhibitor, single point]"}
{"molecule": "Cc1ccc(CNC(=O)CSc2nc3[nH]ncc3c(=O)[nH]2)cc1", "Potency": "inconclusive [inhibitor, single point]"}
{"molecule": "COc1ccc(S(=O)(=O)NCC(=O)NCCc2ccc(OC)c(OC)c2)cc1", "Potency": "inactive"}
{"molecule": "C=CCOC(=O)C1=C[C@@H](c2cn(C(C)=O)c3ccccc23)C[C@@H](OCc2ccc(CO)cc2)O1", "Potency": "inconclusive [inhibitor, single point]"}
{"molecule": "Cc1ccc(NC(=O)Cn2nc(-c3ccncc3)ccc2=O)cc1Cl", "Potency": "inconclusive [inhibitor, single point]"}
{"molecule": "CC(=O)c1c(C)[nH]c(C(=O)OCc2cccc(Cl)c2)c1C", "Potency": "inconclusive [inhibitor, single point]"}
{"molecule": "CCc1ccc(-n2c(=O)c3sc4ccccc4c3n(CC(=O)NC3CCCCC3)c2=O)cc1", "Potency": "inactive"}
{"molecule": "CCCS(=O)(=O)N1CCN(Cc2ccccc2C(F)(F)F)CC1", "Potency": "inactive"}
{"molecule": "Cc1cc(-c2nnc(CCC(=O)NC(c3ccccc3)c3ccccc3)o2)no1", "Potency": "inconclusive [inhibitor, single point]"}
{"molecule": "CCOC(=O)c1sc(N2C(=O)c3oc4ccc(F)cc4c(=O)c3C2c2ccc(C)cc2)nc1C", "note": "(configuration not stated)", "Potency": "inactive"}
{"molecule": "O=[N+]([O-])c1ccc(NN=Cc2cc(Br)ccc2O)nc1", "Potency": "active: 2.59 µM"}
{"molecule": "Cc1ccccc1C(=O)c1cccn1CC(=O)NC1CCCC(C)C1C", "note": "(configuration not stated)", "activity change, negative = growth inhibition": "inconclusive: -31.2% [inhibitor]"}
